Positions count from the first letter of the chain named. Some of the results follow.
B1: CAUUCUA (DNA:RNA)
RNA: GGGAGACCGGAAUUCAGAUUGUCCCAUUCUAUUAAAUCCCGUCGUAGCCACCA
DNA 1: CAATCTGAATTCCGGTCTCCC
DNA 2: TGGTGGCTACGACGGGATT
B2: UAGGCCU (DNA:RNA)
RNA: B1 RNA with C25U, U27G, U28G, U30C, A31U
DNA 1: CAATCTGAATTCCGGTCTCCC
DNA 2: TGGTGGCTACGACGGGATT
B3: GUUAUCU (DNA:RNA)
RNA: B1 RNA with C25G, A26U, U28A, C29U, U30C, A31U
DNA 1: CAATCTGAATTCCGGTCTCCC
DNA 2: TGGTGGCTACGACGGGATT
B4: AACCAAC (DNA:RNA)
RNA: B1 RNA with C25A, U27C, U28C, C29A, U30A, A31C
DNA 1: CAATCTGAATTCCGGTCTCCC
DNA 2: TGGTGGCTACGACGGGATT
B5: CAACACC (DNA:RNA)
RNA: B1 RNA with U27A, U28C, C29A, U30C, A31C
DNA 1: CAATCTGAATTCCGGTCTCCC
DNA 2: TGGTGGCTACGACGGGATT
B6: GGAGUAG (DNA:RNA)
RNA: GGGAGACCGGAAUUCAGAUUGUCCGGAGUAGUUAAAUCCCGUCGUAGCCACCA
DNA 1: CAATCTGAATTCCGGTCTCCC
DNA 2: TGGTGGCTACGACGGGATT
B7: GUGAAGU (DNA:RNA)
RNA: B6 RNA with G26U, A27G, G28A, U29A, A30G, G31U
DNA 1: CAATCTGAATTCCGGTCTCCC
DNA 2: TGGTGGCTACGACGGGATT
B8: AUUCUAA (DNA:RNA)
RNA: B1 RNA with C25A, A26U, U28C, C29U, U30A
DNA 1: CAATCTGAATTCCGGTCTCCC
DNA 2: TGGTGGCTACGACGGGATT
B9: CGAUGAA (DNA:RNA)
RNA: B1 RNA with A26G, U27A, C29G, U30A
DNA 1: CAATCTGAATTCCGGTCTCCC
DNA 2: TGGTGGCTACGACGGGATT
B10: AAGUACC (DNA:RNA)
RNA: B1 RNA with C25A, U27G, C29A, U30C, A31C
DNA 1: CAATCTGAATTCCGGTCTCCC
DNA 2: TGGTGGCTACGACGGGATT
B11: AUGACUU (DNA:RNA)
RNA: B1 RNA with C25A, A26U, U27G, U28A, A31U
DNA 1: CAATCTGAATTCCGGTCTCCC
DNA 2: TGGTGGCTACGACGGGATT
B12: CAAACGU (DNA:RNA)
RNA: B1 RNA with U27A, U28A, U30G, A31U
DNA 1: CAATCTGAATTCCGGTCTCCC
DNA 2: TGGTGGCTACGACGGGATT
B13: UUAUGUU (DNA:RNA)
RNA: B1 RNA with C25U, A26U, U27A, C29G, A31U
DNA 1: CAATCTGAATTCCGGTCTCCC
DNA 2: TGGTGGCTACGACGGGATT
B14: GCGAGUU (DNA:RNA)
RNA: B1 RNA with C25G, A26C, U27G, U28A, C29G, A31U
DNA 1: CAATCTGAATTCCGGTCTCCC
DNA 2: TGGTGGCTACGACGGGATT
B15: AGUUCUG (DNA:RNA)
RNA: B1 RNA with C25A, A26G, A31G
DNA 1: CAATCTGAATTCCGGTCTCCC
DNA 2: TGGTGGCTACGACGGGATT
B16: CAUUUGG (DNA:RNA)
RNA: B1 RNA with C29U, U30G, A31G
DNA 1: CAATCTGAATTCCGGTCTCCC
DNA 2: TGGTGGCTACGACGGGATT
B17: UUUGAGA (DNA:RNA)
RNA: B1 RNA with C25U, A26U, U28G, C29A, U30G
DNA 1: CAATCTGAATTCCGGTCTCCC
DNA 2: TGGTGGCTACGACGGGATT
B18: UUGCCCU (DNA:RNA)
RNA: B1 RNA with C25U, A26U, U27G, U28C, U30C, A31U
DNA 1: CAATCTGAATTCCGGTCTCCC
DNA 2: TGGTGGCTACGACGGGATT
B19: GGCUAUU (DNA:RNA)
RNA: B1 RNA with C25G, A26G, U27C, C29A, A31U
DNA 1: CAATCTGAATTCCGGTCTCCC
DNA 2: TGGTGGCTACGACGGGATT
B20: GGGAUCG (DNA:RNA)
RNA: B6 RNA with A27G, G28A, A30C
DNA 1: CAATCTGAATTCCGGTCTCCC
DNA 2: TGGTGGCTACGACGGGATT
B21: ACCGCUU (DNA:RNA)
RNA: B1 RNA with C25A, A26C, U27C, U28G, A31U
DNA 1: CAATCTGAATTCCGGTCTCCC
DNA 2: TGGTGGCTACGACGGGATT
B22: AGUUUAU (DNA:RNA)
RNA: B6 RNA with G25A, A27U, G28U, G31U
DNA 1: CAATCTGAATTCCGGTCTCCC
DNA 2: TGGTGGCTACGACGGGATT
B23: AUUGUGG (DNA:RNA)
RNA: B6 RNA with G25A, G26U, A27U, A30G
DNA 1: CAATCTGAATTCCGGTCTCCC
DNA 2: TGGTGGCTACGACGGGATT
B24: GUCUCCU (DNA:RNA)
RNA: B1 RNA with C25G, A26U, U27C, U30C, A31U
DNA 1: CAATCTGAATTCCGGTCTCCC
DNA 2: TGGTGGCTACGACGGGATT
B25: CUAGUUU (DNA:RNA)
RNA: B6 RNA with G25C, G26U, A30U, G31U
DNA 1: CAATCTGAATTCCGGTCTCCC
DNA 2: TGGTGGCTACGACGGGATT
B26: GAACUCA (DNA:RNA)
RNA: B6 RNA with G26A, G28C, A30C, G31A
DNA 1: CAATCTGAATTCCGGTCTCCC
DNA 2: TGGTGGCTACGACGGGATT
B27: AGUGCCU (DNA:RNA)
RNA: B1 RNA with C25A, A26G, U28G, U30C, A31U
DNA 1: CAATCTGAATTCCGGTCTCCC
DNA 2: TGGTGGCTACGACGGGATT
B28: CAGUGAC (DNA:RNA)
RNA: B1 RNA with U27G, C29G, U30A, A31C
DNA 1: CAATCTGAATTCCGGTCTCCC
DNA 2: TGGTGGCTACGACGGGATT
B29: GGUCUAA (DNA:RNA)
RNA: B6 RNA with A27U, G28C, G31A
DNA 1: CAATCTGAATTCCGGTCTCCC
DNA 2: TGGTGGCTACGACGGGATT
B30: AUAACCU (DNA:RNA)
RNA: B1 RNA with C25A, A26U, U27A, U28A, U30C, A31U
DNA 1: CAATCTGAATTCCGGTCTCCC
DNA 2: TGGTGGCTACGACGGGATT
B31: UGUAGAA (DNA:RNA)
RNA: B1 RNA with C25U, A26G, U28A, C29G, U30A
DNA 1: CAATCTGAATTCCGGTCTCCC
DNA 2: TGGTGGCTACGACGGGATT

Molecular target: T1, RBFOX1 RRM RbFoxmut (Fox-RRM*) (Homo sapiens, UniProt Q9NWB1 109-208, R118D;E147R;N151S;E152T)
T1 sequence: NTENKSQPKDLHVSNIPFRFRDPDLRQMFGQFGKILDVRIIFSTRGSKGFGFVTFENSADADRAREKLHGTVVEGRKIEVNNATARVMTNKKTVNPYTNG
Assay: EMSA; HiTS-Eq, 1 nM pool, 10 min; buffer printed only for the single-RNA assays: 10 mM Tris pH 7.5, 150 mM NaCl, 3.4 mM EDTA, 0.001% NP-40, 30 C
Conditions: tags: His6 N-terminal (pET28a); label: 5' 32P
In short: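 Relative association constants, normalised to the cognate motif, were derived by comparing read counts of each RNA species with those of the control reaction. The RNA sequenced was the free fraction, separated by 8% native PAGE after a 10 min equilibration in 50 µL of 1 nM 5′-radiolabelled RNA (7 randomized nucleotides) with increasing concentrations of purified wild-type or mutant RbFox RRM.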

For B1, which binding signal is on record?
The binding signal was 0.129 KA relative to UGCAUGU.

Which binding signal does the source give for B2 here?
Its binding signal is 0.0852 KA relative to UGCAUGU.

For B3, which binding signal is on record?
The binding signal was 0.113 KA relative to UGCAUGU.

Which binding signal does the source give for B4 here?
Its binding signal is 0.0799 KA relative to UGCAUGU.

How did the binding signal turn out when B5 was run?
The binding signal was 0.071 KA relative to UGCAUGU.

With B6 as the binder, how does the binding signal read?
The binding signal was 0.0998 KA relative to UGCAUGU.

With B7 as the binder, how does the binding signal read?
The binding signal was 0.139 KA relative to UGCAUGU.

For B8, which binding signal is on record?
Its binding signal is 0.133 KA relative to UGCAUGU.

With B9 as the binder, how does the binding signal read?
Its binding signal is 0.123 KA relative to UGCAUGU.

How did the binding signal turn out when B10 was run?
Its binding signal is 0.0858 KA relative to UGCAUGU.

With B11 as the binder, how does the binding signal read?
Its binding signal is 0.0718 KA relative to UGCAUGU.

B12 was tested. Which binding signal did it give?
Its binding signal is 0.0843 KA relative to UGCAUGU.

B13 was tested. Which binding signal did it give?
Its binding signal is 0.152 KA relative to UGCAUGU.

For B14, which binding signal is on record?
The binding signal was 0.115 KA relative to UGCAUGU.

Which binding signal does the source give for B15 here?
The binding signal was 0.0883 KA relative to UGCAUGU.

B16 was tested. Which binding signal did it give?
The binding signal was 0.0922 KA relative to UGCAUGU.

How did the binding signal turn out when B17 was run?
Its binding signal is 0.0858 KA relative to UGCAUGU.

B18 was tested. Which binding signal did it give?
The binding signal was 0.0809 KA relative to UGCAUGU.

B19 was tested. Which binding signal did it give?
The binding signal was 0.0844 KA relative to UGCAUGU.

Which binding signal does the source give for B20 here?
Its binding signal is 0.369 KA relative to UGCAUGU.

B21 was tested. Which binding signal did it give?
Its binding signal is 0.0742 KA relative to UGCAUGU.

With B22 as the binder, how does the binding signal read?
Its binding signal is 0.118 KA relative to UGCAUGU.

How did the binding signal turn out when B23 was run?
The binding signal was 0.0919 KA relative to UGCAUGU.

For B24, which binding signal is on record?
The binding signal was 0.0855 KA relative to UGCAUGU.

How did the binding signal turn out when B25 was run?
Its binding signal is 0.0878 KA relative to UGCAUGU.

How did the binding signal turn out when B26 was run?
Its binding signal is 0.0676 KA relative to UGCAUGU.

B27 was tested. Which binding signal did it give?
The binding signal was 0.0968 KA relative to UGCAUGU.

Which binding signal does the source give for B28 here?
The binding signal was 0.0828 KA relative to UGCAUGU.

For B29, which binding signal is on record?
The binding signal was 0.101 KA relative to UGCAUGU.

Which binding signal does the source give for B30 here?
Its binding signal is 0.0856 KA relative to UGCAUGU.

For B31, which binding signal is on record?
Its binding signal is 0.117 KA relative to UGCAUGU.

Source: publication PMC9911399, “Two distinct binding modes provide the RNA-binding protein RbFox with extraordinary sequence specificity”
